According to PMC6919601, “Identification of Plasmodium dipeptidyl aminopeptidase allosteric inhibitors by high throughput screening” (PLoS ONE, 2019):
The whole screen tested about 110,000 compounds, of which about 230 (0.21%) showed an effect of 50% or more. Some of the results follow.

Target: DPAP1 (Plasmodium falciparum, UniProt Q8IIJ9)
Experiment: primary screen, percent inhibition; read by cleavage of a fluorogenic dipeptide substrate; higher = more effect of the substance
Design: species or system P. falciparum D10 trophozoite lysates; single well
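Also: 30 min substrate incubation versus DMSO and 10 µM JCP410 controls.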

DPAP1, sequence (Q8IIJ9 whole entry, looked up): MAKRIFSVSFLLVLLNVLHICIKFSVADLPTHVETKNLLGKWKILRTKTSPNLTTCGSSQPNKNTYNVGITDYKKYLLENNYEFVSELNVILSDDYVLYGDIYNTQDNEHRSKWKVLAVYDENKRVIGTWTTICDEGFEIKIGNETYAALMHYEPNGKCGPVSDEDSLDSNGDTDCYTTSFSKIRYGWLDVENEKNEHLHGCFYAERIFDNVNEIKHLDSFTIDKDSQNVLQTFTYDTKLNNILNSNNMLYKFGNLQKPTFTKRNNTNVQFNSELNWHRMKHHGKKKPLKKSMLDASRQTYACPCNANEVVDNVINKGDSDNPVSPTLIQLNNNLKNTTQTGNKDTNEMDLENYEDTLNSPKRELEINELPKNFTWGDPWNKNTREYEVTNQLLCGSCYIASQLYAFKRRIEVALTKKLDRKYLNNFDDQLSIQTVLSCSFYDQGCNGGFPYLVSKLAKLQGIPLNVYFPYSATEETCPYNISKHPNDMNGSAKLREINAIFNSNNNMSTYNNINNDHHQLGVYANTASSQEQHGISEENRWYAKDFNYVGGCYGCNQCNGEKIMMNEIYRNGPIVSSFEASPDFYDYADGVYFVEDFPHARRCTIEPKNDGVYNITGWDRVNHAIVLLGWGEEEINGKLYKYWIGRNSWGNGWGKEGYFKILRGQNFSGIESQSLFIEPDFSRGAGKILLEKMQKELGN

| Compound | % Inhibition @ 10 uM [%] |
| --- | --- |
| c1ccc(CN2CCC(N3CCN(c4ccccc4)CC3)CC2)cc1 | 4.74 |
| Cc1nc2sccn2c(=O)c1S(=O)(=O)NC1CCN(Cc2ccccc2)CC1 | 3.02 |
| c1ccc(-c2nc3sc(-c4ccccc4)nc3s2)cc1 | 2.38 |
| COC(=O)c1cc(S(=O)(=O)N2CCN(C3CCCCC3)CC2)c[nH]1 | 4.36 |
| CN(C)C(=O)c1ccc2c(c1)C1C3CCC(C3)C1C(c1ccccc1)N2 (centres unmarked) | -3.5 |
| CCn1cc(CCCC(=O)N2CCC3(CC2)OCCO3)c2ccccc21 | -1.67 |
| CN(CC(O)CN1CCOCC1)S(=O)(=O)O (centres unmarked) | 6.31 |
| N#C/C(=C\c1ccc(Cl)cc1Cl)c1nc(-c2ccc(-c3ccccc3)cc2)cs1 | -7.02 |
| Clc1ccc(N2CCN(C3CCN(CCc4ccccc4)CC3)CC2)cc1 | -0.0908 |
| O=C1CCCc2c1cc(C(=O)O)c(=O)n2-c1ccccc1 | 1.88 |
| CCOc1cc2oc(=O)cc(-c3ccccc3)c2cc1Cl | 1.18 |
| Cc1cccn2c(=O)c(/C=C(\C#N)C(=O)NC3CCS(=O)(=O)C3)c(Oc3ccc(Cl)cc3)nc12 (centres unmarked) | -3.23 |
| COc1cc(C(=O)NCc2nnc(SCC(=O)N3CCOCC3)o2)cc(OC)c1OC | -7.21 |
| CCN(c1nc(C)cc(OC)n1)S(=O)(=O)c1ccc(C)cc1 | -6.36 |
| CC(=O)c1c(C)oc2ccc(N(C(C)=O)S(=O)(=O)c3ccc(F)cc3)cc12 | -2.8 |
| Cc1c(C=O)c2ccccc2n1CC(=O)O | -4.35 |
| O=[N+]([O-])c1ccc(OCCOCCO)cc1 | -1.02 |
| CC1CCCN(S(=O)(=O)c2ccc3nc(O)cc(C(=O)NCC4COc5ccccc5O4)c3c2)C1 (centres unmarked) | -1.34 |
| Cc1nn(C(=O)c2cccnc2)c(-c2ccccc2)c1Sc1ccccc1 | -9.24 |
| O=C(O)COc1ccc(Cl)cc1C1C2=C(O)CCCC2=NC2=C1C(=O)CCC2 (centres unmarked) | 3.05 |
| COc1ccc(CCC(C)NC2CCCCCCC2)cc1 (centres unmarked) | 2.99 |
| Cc1ccc(NC(=O)c2cccc(OC(F)F)c2)cc1F | -1.88 |

| Compound | % Inhibition @ 10 uM [%] |
| --- | --- |
| COc1ccc(/C=C2\SC(=O)N(Cc3ccccc3)C2=O)c(OC)c1 | -1.35 |
| COc1cccc(-n2nnc3c(=O)n(Cc4ccccc4C)cnc32)c1 | -5.79 |
| Cc1ccc(-n2nc(C)c(/C=C3\Sc4ccccc4C3=O)c2C)cc1 | -2.14 |
| COc1cc(/C=C2\S/C(=N/c3cccc(C(=O)O)c3)N(C)C2=O)cc(Br)c1OC | -2.8 |
| COc1ccc(-c2c(C#N)c(N)nc3c2CCCC3)cc1OC | 6.08 |
| COCCCNC(=O)c1ccc2c(c1)c(C)c(C)n2C | 3.78 |
| CC(C)Oc1ccc(C2CC(=O)N3C(=C2C#N)SCC3(O)c2ccc(F)cc2)cc1 (centres unmarked) | 3.24 |
| CC(C)C[C@H](NC(=O)c1cc(-c2ccccc2)c(-c2ccccc2)s1)C(=O)NCC#N | 1.71 |
| Cc1ccc(S(=O)(=O)NCC(=O)NCc2ccccc2Cl)cc1 | -3.45 |
| CC1(C)CCCC2=C1CC1C(=O)NC(=O)C1C2 (centres unmarked) | -0.833 |
| COc1ccc(-n2c(S)nnc2CN2CCSCC2)cc1 | -0.582 |
| Cc1csc(-c2ccc(C(=O)N[C@@H](CC(C)C)C(=O)NCC#N)cc2)c1 | -4.72 |
| O=C(O)CCC(=O)Nc1ccc(-c2nc3ccccc3[nH]2)cc1 | -2.55 |
| O=C1c2ccncc2C(=O)N1Cc1ccccc1 | 1.93 |
| Cc1ccc(CN2C(=O)N/C(=C/c3ccccc3F)C2=O)cc1 | -5.44 |
| Clc1ccc(CN2CCN(Cc3ccncc3)CC2)cc1 | 5.6 |
| CN(C)CCOC(c1ccccc1)c1ccc(Cl)cc1 (centres unmarked) | -1.69 |
| N#Cc1c(N2C(=O)c3ccccc3C2=O)sc2c1CCCC2 | -4.75 |
| COc1ccc(N(CC(=O)Nc2cccc(Cl)c2)S(C)(=O)=O)cc1Cl | -1.04 |
| COCc1c(CN)cnc(C)c1N | -0.424 |
| O=C(Cn1c(=O)n(Cc2ccc3c(c2)OCO3)c(=O)c2oc3ccccc3c21)NCc1ccccc1 | 1.95 |
| CC(=O)N1CCN(Cc2ccc(Cl)c(Cl)c2)CC1 | -1.41 |

| Compound | % Inhibition @ 10 uM [%] |
| --- | --- |
| CC(=O)Nc1cccc(Nc2nc(N3CCCCC3)nc(N(c3ccccc3)c3ccccc3)n2)c1 | 10.4 |
| COc1cccc(-c2nc(CSCC(=O)NCCN3CCCC3)c(C)o2)c1 | -1.05 |
| COC(=O)N1CCc2cc(OC)c(OC)cc2C1c1ccc(OC)c(OC)c1 (centres unmarked) | -2.85 |
| Cc1cc(OCC(=O)Nc2nccs2)cc(C)c1Cl | 1.08 |
| Oc1[nH]nc2ccc(Cl)cc12 | -1.71 |
| CC(C)c1ccc(CN2CCCC(O)C2)cc1 (centres unmarked) | -2.56 |
| Cc1ccccc1N1CCN(CCC(=O)Nc2ccc(F)cc2)CC1 | -2.82 |
| CN1CCCN(Cc2ccc3c(c2)OCO3)CC1 | -2.7 |
| Cc1ccc(-c2noc(CCC(=O)Nc3cc(C)ccn3)n2)cc1 | 0.738 |
| CCCNC(=O)CN1C(=O)NC2NC(=O)NC21 (centres unmarked) | -7.46 |
| Cc1ccc(NC(=O)c2cc3c(C)nn(-c4ccccc4)c3s2)cc1 | -5.26 |
| O=C(NCCc1cc2ccccc2[nH]1)c1ccc2snnc2c1 | -0.0235 |
| NC(=O)C1C(=O)NC2=C(CCCC2)C1c1ccccc1 (centres unmarked) | -4.8 |
| Cc1ccc(CCNc2ccc3ccccc3c2)cn1 | 4.22 |
| O=C(O)COc1ccccc1C=C1C(=O)c2ccccc2C1=O | 1.75 |
| COC(=O)CN(C)C1CCS(=O)(=O)C1 (centres unmarked) | -2.15 |
| CCOC(=O)c1c(C)[nH]c(C)c1S(=O)(=O)N(C)CC(=O)NCc1ccccc1Cl | 0.00978 |
| C#CCSc1nc2c(c(=O)n1-c1ccccc1)C1(CCCC1)Cc1ccccc1-2 | 1.8 |
| CCCSC1=C(C#N)C(c2ccccc2Cl)C(C(=O)Nc2ccccc2)=C(C)N1 (centres unmarked) | -3.77 |
| CCN1CCN(Cc2ccc3c(c2)c2ccccc2n3CC)CC1 | -6.36 |
| CCc1ccccc1N(CC(=O)Nc1ccc(OC)cc1)S(C)(=O)=O | 2.96 |
